Over roughly 4,500 sequences, “median log2 fold change of GCK-ALFA target abundance (FLAG IP / Myc IP barcode read proportion)” has its median near 0.078; the lowest 2% begin near -0.6. The list shows a part of the results.
B1: GBRAP_26_5447 (protein)
chain: LEEKLKELEDELDALIDELLPPELAGPAKAELLTLLEEYEEKAEENKDNEEELKKIAEETVEEFRRELELLGVPAEVIEKLTKALKEGLEEILEELKKEK
B2: GBRAP_74_6536 (protein)
chain: SEEKEKVIKEINEAETIEEAIEITEKVLETDDKELARAAVQELLLKAAERKDELTLEEAERLVEVIVRAFEKNGIVVETREEAEALNTVLTKALELEEKA
B3: GBRAP_78_6588 (protein)
chain: DIEEAIDRFLEAAGEAMRLLSKDPSPLAQDLLGELIDEVSEIEEAFEEENDLEEIKEEAEEAAEALRAALEQREQFSPETVAAIERALKAAEELIELLEE
B4: GBRAP_52_5861 (protein)
chain: AVEEALALLEAAIAAMKAGKREEAEKILKEIVENFDEETILAAAELLAERLAEATPEEAEAAFETAELLGEILEKAGFDEEVVTLVEDTIGAAVARVEAR
B5: GBRAP_11_2607 (protein)
chain: KKETLKEAAELAKKLAEAVKKLIEEGVDNEELRKEIEELIKKLKELVEKELDEADQKDVKVIEELWKEALEDPENQVEYLKQLQAAADVLSGNYLLDIEE
B6: GBRAP_125_3151 (protein)
chain: KKEALLRLAEALARAAGFSEEEIAELRRIAEASDPAQTVVAILLAAGFEEAAELAEKVLDKLTEEELEELIALAEASLDESLEEFYERLLALLKELLARL
B7: GBRAP_35_5527 (protein)
chain: DTDRTAAEMLVAYIEDLTLAVPDMPVEDLARLATAAADAAEELAKDLKNDKESLEKLLKALTALRDAIEKHHGDDPLMQEVIARIDAVIKELEKRIKEAE
B8: GBRAP_160_4801 (protein)
chain: MERVEKVVEIVREELEEALEMAKGESNAERVNIFDVELGAAIMEAIELGLLNDEEEEVLADVRDELVAAIAANPDLTDAELAALADDAVARLRERLLALQ
B9: GBRAP_184_5123 (protein)
chain: TLINASVEADDAEELIAKAEAVVKEAAAKGAKLNLHVFAKNLSVEEVIKVIKALGELKKKYPQVEITLDVLDERNEEEVDKLVKAADEAGVRLVVALKEE
B10: GBRAP_80_6863 (protein)
chain: MEEKIKEALELAKEVSEELAKLFEELIKALKELGVSDEDIARIAELVADIIKLDPELALEALKEMLKAAKEYKKEGKGEEALVEVLGIAGEALMEALEKE
B11: GBRAP_184_5114 (protein)
chain: KTLEKEIEVNDVAEAKEKLAAAIAEAVKEKANLNIIVKVKNATVELAKAIMEELAAGKKAGIKNVNVLFESDNITEEVIDALLKTADELGLKNVVIASKE
B12: GBRAP_52_6238 (protein)
chain: MEERLRALAEEILALVRAGDEEGARALARELAATLNEEELRLFIEEFARLAREAPREEIDDVWRAAEIVAEALEEAGWPDVLVDELEARVAAALVEVEER
B13: GBRAP_128_3234 (protein)
chain: MDPELRARVEALIETIINGDVEEAAAATAELVALMGEVSDEEAEEIAELLIEALKDLSVEKLETVADTIEANRGTLDPEKANLANDVLIEALNLAEELEE
B14: GBRAP_52_6105 (protein)
chain: MRERLREEALAILELVKAGRLEEARERIRELVERLNDEELRLLADEIARIAREAAPEDLDAVWRLAEMLAEELERAGKDEVLVDYLLSSTAAALYEREQA
B15: GBRAP_160_4663 (protein)
chain: SEEIEKTLEEIRELLLETLRWTRDLNAEDRRALLDATVGDVLQILFENPLVTDEVEDYAEKVLTELREYVLSNPDLTDEEIEELVEEVVEKIREKIEEES
B16: GBRAP_83_6966 (protein)
chain: MEKITVATTADHVDSAIEAARDLAEEEGYEVTVELIGSPEEVLASARKVAAALKDIPNVEILAAVERVRPEEAERLRRELAAIGEEYGLKVEVRYDIVEP
B17: GBRAP_125_3004 (protein)
chain: AKEEAAANMREIALAAGFSESLAEELAQLVLAGSVRNALAAFALALGNEEAAELIRQLTEEQAVAVVAELAAIARAEGPMSEEEMAARLLALAKAALAAQ
B18: GBRAP_74_6565 (protein)
chain: SEELIEEIKKVAEEKSIKEFAEFILEHIDELDEESLLVALKELLEKVKKEKDKITKEEAELVAEAAAALADKAFTSDASEETLKAAQELIKEVIEIEKKL
B19: GBRAP_128_3203 (protein)
chain: ASPEAVAALRELADRVAATRTDADIAAFAAAIAAALRAGELDLDTLEEIVRYLGSKLDEEDIARAEAALRAALADVGAEALAVALGALGEVLMEKFEKEE
B20: GBRAP_128_3156 (protein)
chain: SVEEVRKKTRELLEKIKESDDETARELARELFELIGTLSPEEAEAAVEVILERLPELSEEKLEILADVAREMMPKYDPYKANLLAEVEVEALNEAEELEE
B21: GBRAP_11_2660 (protein)
chain: KKEIYEEMAKLAEELAKALEELIKKGVDDEELIEKIEKLLEEIEKLAEEHADEAIKSDVEVAKELWEEFKKDPENKEQYAKELLAAVRVLHGNLLLEADE
B22: GBRAP_11_2930 (protein)
chain: KKEELEKAAKLADEIAKQLTAAIESGVVDPATLAEIRKKLEELAKLVEKYGDEYEKEIAQEAKEELEKAEADPETALEHLEDARGYVIELEGLLLLRIEE
B23: GBRAP_80_6819 (protein)
chain: MEEEIERHLREIEEIDPELAEIVRRAVEIAKELGVPLEEIARLVKALAELAKLDLERARELAEELLRELEEARKRGDREYALAEVVDATSEALLEVEELE
B24: GBRAP_160_4054 (protein)
chain: GEEKEELKKMVDEAREEIKEVIDEEGAEAAAVMAAGEFGAIIMEAAELPTASDELVDALDEIRDDLVARLEANRDAPPEELKAIVDEAAEKAKKAIEEHM
B25: GBRAP_160_4596 (protein)
chain: SAEAEKLKKRLKEIVEEAKELIEGETHEQRLVIIRVMVGDILLELDESPLASDELQEKAAEIGDELVETVESNPELTEEEIKKLIEEMLEKILKAIDEEV
B26: GBRAP_160_4665 (protein)
chain: SEEVEKTLEEIRELLLEALEWARTESPENRRAILRTTVGDVVLILEENPLATDEVIDLADELGEEMAEYVLANPDLTPEEREALVEEFVEKIREAILASQ
B27: GBRAP_78_6657 (protein)
chain: KVEEALEEADRAAREALEKAKKISPELAELAAETEVLVGNALLLYEIEKASPEEILKEVEEALKAAEELAKKAKKEDEELAKLAEELIKKLEELKKLLKE
B28: GBRAP_80_6755 (protein)
chain: ALEELEENLKELIELLPEEGTRLKEVLERALAAGVPAKDVARLVKALVELAKLDLEKARELATRFIERLTEELDAGDLEGVRGEIVDAESDALLEVEELE
B29: GBRAP_53_6420 (protein)
chain: MEERLRELRERILRLAREAGRAGPAETLALVEEIGRLLAELKEAGASDEEITELAREVARELKAAGAPDSALVALANHLAALGLEDATAEVVELIVEDLE

The binders below were run against GABARAP, O95166 (assay: median log2 fold change of GCK-ALFA target abundance (FLAG IP / Myc IP barcode read proportion) (log2 ratio); each designed protein is fused to an ALFA-tag nanobody in HEK293 cells to bring the named protein to FLAG-tagged glucokinase (GCK); Myc marks an untargeted standard; higher = target protein stabilised (more abundant)). Details: target protein: 3xFLAG-MCP-GCK-ALFA reporter; HEK293 landing pad (RPLP).
Chain of GABARAP, O95166 (O95166 whole entry, the tested form may be a part): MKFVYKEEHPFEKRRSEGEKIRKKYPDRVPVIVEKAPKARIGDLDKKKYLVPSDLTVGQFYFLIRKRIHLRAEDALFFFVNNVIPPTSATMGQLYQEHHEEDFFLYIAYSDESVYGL
Method in brief: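 Binders fused to an ALFA nanobody were recombined as a library into HEK293 landing-pad cells, which were induced with 2 μg mL^−1 doxycycline and then transfected to express a FLAG-tagged target and a Myc-tagged standard. After 48 h, circular RNA barcodes recovered by anti-FLAG and anti-Myc immunoprecipitation of lysates were reverse transcribed, amplified and sequenced. Each binder's target abundance is the median log2 ratio of FLAG to Myc barcode read proportions, from barcodes present at ≥10^−7 in both replicates, binders carrying ≥3 barcodes per replicate, a 10^−6 pseudocount and pooled replicates.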
With B1 the “median log2 fold change” value was 0.457. For B2, the “median log2 fold change” value was -0.769. B3 was tested, and the “median log2 fold change” value was -0.32. In the case of B4, the “median log2 fold change” value is reported as -0.00948. For B5, the “median log2 fold change” value was 0.245. With B6 the “median log2 fold change” value was -0.289. For B7, the “median log2 fold change” value was 0.0739. With B8 the “median log2 fold change” value was -0.0228. B9 was tested, and the “median log2 fold change” value was -0.0195. With B10 the “median log2 fold change” value was 0.0754. With B11 the “median log2 fold change” value was 0.119. In the case of B12, the “median log2 fold change” value is reported as -0.39. B13 was tested, and the “median log2 fold change” value was -0.0001. With B14 the “median log2 fold change” value was 0.0244. In the case of B15, the “median log2 fold change” value is reported as -0.169. With B16 the “median log2 fold change” value was 0.0823. With B17 the “median log2 fold change” value was 0.145. In the case of B18, the “median log2 fold change” value is reported as -0.00918. For B19, the “median log2 fold change” value was 0.0555. With B20 the “median log2 fold change” value was -0.269. For B21, the “median log2 fold change” value was 0.304. For B22, the “median log2 fold change” value was 0.208. B23 was tested, and the “median log2 fold change” value was 0.139. In the case of B24, the “median log2 fold change” value is reported as -0.488. In the case of B25, the “median log2 fold change” value is reported as -0.381. For B26, the “median log2 fold change” value was -0.362. In the case of B27, the “median log2 fold change” value is reported as 0.267. In the case of B28, the “median log2 fold change” value is reported as -0.286. For B29, the “median log2 fold change” value was 0.189.

From the supplement of paper PMC12632987
